Assay results taken from the supplement of paper PMC3334620.
Over roughly 33,000 sequences, “E-score (-0.5 to 0.5)” has its median near -0.01; the highest 2% begin near 0.26. Some of the results follow.

What follows are sequences tested against Ste12 (UniProt P13574) (assay: PBM E-score (8-mer binding enrichment) (E-score (-0.5 to 0.5)); higher = stronger / more preferred TF binding; most listed sequences are background and not binding sites). Settings: protein concentration: 200 nM; construct: GST-DNA-binding domain.
In short: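 Using PURExpress in vitro transcription/translation, GST-tagged yeast transcription factors were made in full-length or DNA-binding-domain form. These were applied at about 100-200 nM to double-stranded universal all-10-mer Agilent arrays, and bound protein was detected with fluorescent anti-GST. Scans were normalised with masliner before the Universal PBM Analysis Suite assigned E-scores to ungapped eight-base words pooled with their reverse complements.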

Row | Sequence | PBM E-score
1 | GATTATCC | 0.0536
2 | CACCCACA | -0.00321
3 | ATTAGGGG | -0.0469
4 | GCTACTAA | -0.0557
5 | ATAGCATA | -0.011
6 | GCCGGGGA | -0.0159
7 | GGAGCCAA | -0.043
8 | AACGCGGA | 0.102
9 | CGCCCCCA | -0.079
10 | ACCCGAAC | 0.241
11 | TGCGACAA | 0.225
12 | GAAGAAGC | -0.0161
13 | AGGGGTTG | 0.105
14 | ATGGTACA | 0.0633
15 | AACTTTAT | 0.165
16 | CAGTAATC | -0.144
17 | AGACAAAG | -0.0458
18 | ACGATCCA | -0.0639
19 | TAATAACA | 0.155
20 | GCCATGTA | -0.028
21 | AGACGAGA | -0.00813
22 | ATAGATCC | -0.0511
23 | ACTGACAT | 0.0507
24 | CCTCTAAC | 0.0258
25 | GGCTAAAA | 0.233

Row | Sequence | PBM E-score
26 | ATTTTACG | 0.243
27 | CGAATGAG | 0.0717
28 | CCTAAGAA | -0.0255
29 | GTCCCCCA | -0.0688
30 | ACCGGATC | -0.0235
31 | ATATTCAA | 0.251
32 | GGACAAGA | -0.059
33 | CCACGTAA | -0.143
34 | GCAATGCC | -0.188
35 | GATAGTCC | -0.174
36 | AACGATAC | 0.104
37 | GCATCGCA | 0.0839
38 | AATTAGAT | 0.144
39 | GCCGAAAC | 0.178
40 | GTATTGGA | -0.133
41 | GATTGAGA | 0.0757
42 | AAGGTTGG | -0.0882
43 | CTTAGTCA | -0.0476
44 | AAGCTACG | -0.174
45 | CCACTCCG | -0.0381
46 | GACCGGGC | -0.122
47 | CGAGACTC | -0.043
48 | GAGGTCGC | -0.175
49 | CTAAGTAG | -0.0366
50 | AGTACCGG | -0.261

Row | Sequence | PBM E-score
51 | AGAATACC | 0.116
52 | CATGCATG | -0.178
53 | AGTGGCCA | -0.124
54 | AACTCATT | -0.0883
55 | TAGTTTAA | 0.171
56 | ACCGCCGT | -0.0967
57 | GCGTAGCA | 0.0572
58 | TAACCCTA | -0.0788
59 | AAAAGTGT | 0.0304
60 | GGGACGTA | 0.0585
61 | ACCCTGCA | 0.0598
62 | CAACATGG | 0.0422
63 | ATGGCACG | -0.0157
64 | AACGATTA | -0.00667
65 | ATCGGCGA | -0.105
66 | ATACGTAT | 0.19
67 | ATAGATTC | 0.00524
68 | GCTCCCCA | -0.151
69 | CTTGGGCA | 0.0586
70 | GGGCAGGA | -0.0883
71 | AAGCTTCC | -0.121
72 | ATTATGTC | 0.0876
73 | GCTCACCA | -0.178
74 | TGTAGCAA | 0.00056
75 | CTGTAGCC | -0.148

Row | Sequence | PBM E-score
76 | CGCTTACA | -0.0519
77 | GCCCATAA | -0.0817
78 | CTAACCTA | 0.0297
79 | GAATCGAC | 0.125
80 | GAGACTGA | -0.151
81 | AATTACCA | 0.17
82 | GAAAAGTA | 0.249
83 | TTGCGAAA | 0.234
84 | AAGTTTCC | 0.11
85 | AAGCAAGC | 0.227
86 | AGTGAGCG | -0.176
87 | GTAAATAC | 0.0368
88 | GGAGTGCA | 0.146
89 | AATGTGCA | 0.124
90 | GAATGAGA | -0.00579
91 | AGCATGGG | -0.0459
92 | ATACGATC | 0.157
93 | CCGTTCCC | -0.0627
94 | ACAGCAAT | 0.0379
95 | GAGCAGCA | 0.0309
96 | AAAGAATC | 0.136
97 | GATCTGCC | 0.0158
98 | GCCTGCAA | 0.0142
99 | AGTGTAGC | 0.111
100 | ACTTCGAT | 0.0438

Row | Sequence | PBM E-score
101 | CGCTACTC | -0.089
102 | AAGGGGTG | -0.0295
103 | CTAGAGGA | -0.234
104 | GTAGTCAC | -0.118
105 | AGAGCTAG | -0.00688
106 | GGACCACC | -0.0477
107 | GGCCCACA | -0.0869
108 | CACGTGGC | -0.229
109 | CCTGTTTA | 0.0871
110 | CGAGTAAG | 0.155
111 | GACAATCA | -0.168
112 | CTTAAACC | -0.0326
113 | ATCCGTAC | 0.0195
114 | ACATGCAA | 0.108
115 | CCTCGCGA | 0.0144
116 | AGGCGGTC | -0.102
117 | ACAAGTGG | 0.00236
118 | CGATGAAC | 0.124
119 | AGGATACG | -0.265
120 | AGAAATAC | -0.0119
121 | CTAACGGA | -0.0211
122 | GGAACATA | 0.103
123 | CTTTCTTC | 0.0726
124 | CGATGTAG | -0.0556
125 | AACAAATT | 0.268

Row | Sequence | PBM E-score
126 | AACACGGT | 0.0872
127 | GAGGAGGC | -0.138
128 | CTGAAACA | 0.495
129 | ATGGTAGA | 0.0532
130 | AGTATTTA | 0.0755
131 | AGCTAGCT | -0.0845
132 | GCGATGAA | 0.116
133 | CTTCAAAC | 0.218
134 | AGCTAGTA | -0.0302
135 | ACATGCGT | 0.0857
136 | CGCTTACC | -0.175
137 | GCCACATA | -0.165
138 | ACAATGTG | 0.132
139 | GTTTGAAA | 0.409
140 | AAATGCGG | 0.113
141 | CACCACCA | 0.0187
142 | CCTTAACG | 0.0779
143 | CCGACGGC | -0.0579
144 | CGTGATGC | 0.0567
145 | CGGGATGC | -0.111
146 | GTTACTCA | 0.0672
147 | CTTGCGCA | 0.156
148 | AGATCTTA | 0.0906
149 | GCGCATTA | -0.0799
150 | AAAATGAA | 0.27

Row | Sequence | PBM E-score
151 | CTTTGCGC | 0.117
152 | CATTTCGC | -0.0451
153 | ATCAAGCG | 0.059
154 | GATGTGTA | -0.051
155 | CCATTGGA | -0.224
156 | CGACGGAC | -0.137
157 | GAACTAAA | 0.247
158 | AGCTTGAA | -0.0125
159 | TCAGACCA | 0.0264
160 | AAGATTTC | 0.169
161 | ACCATTTG | 0.0814
162 | ATCATCTG | 0.0767
163 | CGTGCTAG | -0.17
164 | GAGGCGTA | 0.023
165 | AACTATAT | 0.193
166 | AGTAGCTG | -0.149
167 | GCGATTAA | 0.168
168 | CGTGTCAA | 0.00368
169 | CAGTCCCG | -0.235
170 | CGTGAGCA | -0.07
171 | CAATACCG | 0.0644
172 | ACTTCTCA | -0.0157
